Laboratory results reported in patent US12723106 (dated 2026).

B1: sLC-Tandem-(anti-IL4xanti-IL13)-PCL2-huIgG1, IL13 arm (antibody)
chain 1: QVQLQQSGPELVKPGASVKISCKASGYSFTSYWIHWIKQRPGQGLEWIGMIDPSDGETRLNQRFQGRATLTVDESTSTAYMQLRSPTSEDSAVYYCTRLKEYGNYDSFYFDVWGAGTLVTVSSASTKGPSVFPLAPSSKSTSGGTAALGCLVKDYFPEPVTVSWNSGALTSGVHTFPAVLQSSGLYSLSSVVTVPSSSLGTQTYICNVNHKPSNTKVDKKVEPKSCDKTHTGGGGSGGGGSGGGGSEVQLKESGPGLVAPGGSLSITCTVSGFSLTDSSINWVRQPPGKGLEWLGMIWGDGRIDYADALKSRLSISKDSSKSQVFLEMTSLRTDDTATYYCARDGYFPYAMDFWGQGTSVTVSS[omitted - human IgG1 constant region]
chain 2: DIVLTQSPASLAVSLGQRATISCRASESVDSYGQSYMHWYQQKAGQPPKLLIYLASNLESGVPARFSGSGSRTDFTLTIDPVQAEDAATYYCQQNAEDSRTFGGGTKLEIKRTVAAPSVFIFPPSDEQLKSGTASVVCLLNNFYPREAKVQWKVDNALQSGNSQESVTEQDSKDSTYSLSSTLTLSKADYEKHKVYACEVTHQGLSSPVTKSFNRGEC
B2: Tandem-(anti-IL4xanti-IL13)-huIgG1, IL13 arm (antibody)
chain 1: QVQLQQSGPELVKPGASVKISCKASGYSFTSYWIHWIKQRPGQGLEWIGMIDPSDGETRLNQRFQGRATLTVDESTSTAYMQLRSPTSEDSAVYYCTRLKEYGNYDSFYFDVWGAGTLVTVSSASTKGPSVFPLAPSSKSTSGGTAALGCLVKDYFPEPVTVSWNSGALTSGVHTFPAVLQSSGLYSLSSVVTVPSSSLGTQTYICNVNHKPSNTKVDKKVEPKSCDKTHTGGGGSGGGGSGGGGSEVQLKESGPGLVAPGGSLSITCTVSGFSLTDSSINWVRQPPGKGLEWLGMIWGDGRIDYADALKSRLSISKDSSKSQVFLEMTSLRTDDTATYYCARDGYFPYAMDFWGQGTSVTVSS[omitted - human IgG1 constant region]
chain 2: DIVLTQSPASLAVSLGQRATISCRASESVDSYGQSYMHWYQQKAGQPPKLLIYLASNLESGVPARFSGSGSRTDFTLTIDPVQAEDAATYYCQQNAEDSRTFGGGTKLEIKRTVAAPSVFIFPPSDEQLKSGTASVVCLLNNFYPREAKVQWKVDNALQSGNSQESVTEQDSKDSTYSLSSTLTLSKADYEKHKVYACEVTHQGLSSPVTKSFNRGEC
B3: sLC-Tandem-(anti-IL4xanti-IL13)-His8-PCL1-huIgG1 with Furin-KDEL, IL13 arm (antibody)
chain 1: QVQLQQSGPELVKPGASVKISCKASGYSFTSYWIHWIKQRPGQGLEWIGMIDPSDGETRLNQRFQGRATLTVDESTSTAYMQLRSPTSEDSAVYYCTRLKEYGNYDSFYFDVWGAGTLVTVSSASTKGPSVFPLAPSSKSTSGGTAALGCLVKDYFPEPVTVSWNSGALTSGVHTFPAVLQSSGLYSLSSVVTVPSSSLGTQTYICNVNHKPSNTKVDKKVEPKSCDKTHTGGGGSGGGGSGGGGSEVQLKESGPGLVAPGGSLSITCTVSGFSLTDSSINWVRQPPGKGLEWLGMIWGDGRIDYADALKSRLSISKDSSKSQVFLEMTSLRTDDTATYYCARDGYFPYAMDFWGQGTSVTVSS[omitted - human IgG1 constant region]
chain 2: DIVLTQSPASLAVSLGQRATISCRASESVDSYGQSYMHWYQQKAGQPPKLLIYLASNLESGVPARFSGSGSRTDFTLTIDPVQAEDAATYYCQQNAEDSRTFGGGTKLEIKRTVAAPSVFIFPPSDEQLKSGTASVVCLLNNFYPREAKVQWKVDNALQSGNSQESVTEQDSKDSTYSLSSTLTLSKADYEKHKVYACEVTHQGLSSPVTKSFNRGEC
B4: sLC-Tandem-(anti-IL4xanti-IL13)-His8-PCL1-huIgG1 with Furin, IL13 arm (antibody)
chain 1: QVQLQQSGPELVKPGASVKISCKASGYSFTSYWIHWIKQRPGQGLEWIGMIDPSDGETRLNQRFQGRATLTVDESTSTAYMQLRSPTSEDSAVYYCTRLKEYGNYDSFYFDVWGAGTLVTVSSASTKGPSVFPLAPSSKSTSGGTAALGCLVKDYFPEPVTVSWNSGALTSGVHTFPAVLQSSGLYSLSSVVTVPSSSLGTQTYICNVNHKPSNTKVDKKVEPKSCDKTHTGGGGSGGGGSGGGGSEVQLKESGPGLVAPGGSLSITCTVSGFSLTDSSINWVRQPPGKGLEWLGMIWGDGRIDYADALKSRLSISKDSSKSQVFLEMTSLRTDDTATYYCARDGYFPYAMDFWGQGTSVTVSS[omitted - human IgG1 constant region]
chain 2: DIVLTQSPASLAVSLGQRATISCRASESVDSYGQSYMHWYQQKAGQPPKLLIYLASNLESGVPARFSGSGSRTDFTLTIDPVQAEDAATYYCQQNAEDSRTFGGGTKLEIKRTVAAPSVFIFPPSDEQLKSGTASVVCLLNNFYPREAKVQWKVDNALQSGNSQESVTEQDSKDSTYSLSSTLTLSKADYEKHKVYACEVTHQGLSSPVTKSFNRGEC
B5: sLC-Tandem-(anti-IL4xanti-IL13)-PCL1-huIgG1, IL13 arm (antibody)
chain 1: QVQLQQSGPELVKPGASVKISCKASGYSFTSYWIHWIKQRPGQGLEWIGMIDPSDGETRLNQRFQGRATLTVDESTSTAYMQLRSPTSEDSAVYYCTRLKEYGNYDSFYFDVWGAGTLVTVSSASTKGPSVFPLAPSSKSTSGGTAALGCLVKDYFPEPVTVSWNSGALTSGVHTFPAVLQSSGLYSLSSVVTVPSSSLGTQTYICNVNHKPSNTKVDKKVEPKSCDKTHTGGGGSGGGGSGGGGSEVQLKESGPGLVAPGGSLSITCTVSGFSLTDSSINWVRQPPGKGLEWLGMIWGDGRIDYADALKSRLSISKDSSKSQVFLEMTSLRTDDTATYYCARDGYFPYAMDFWGQGTSVTVSS[omitted - human IgG1 constant region]
chain 2: DIVLTQSPASLAVSLGQRATISCRASESVDSYGQSYMHWYQQKAGQPPKLLIYLASNLESGVPARFSGSGSRTDFTLTIDPVQAEDAATYYCQQNAEDSRTFGGGTKLEIKRTVAAPSVFIFPPSDEQLKSGTASVVCLLNNFYPREAKVQWKVDNALQSGNSQESVTEQDSKDSTYSLSSTLTLSKADYEKHKVYACEVTHQGLSSPVTKSFNRGEC
B6: sLC-Tandem-(anti-IL4xanti-IL13)-ΔPCL1-huIgG1, IL13 arm (antibody)
chain 1: QVQLQQSGPELVKPGASVKISCKASGYSFTSYWIHWIKQRPGQGLEWIGMIDPSDGETRLNQRFQGRATLTVDESTSTAYMQLRSPTSEDSAVYYCTRLKEYGNYDSFYFDVWGAGTLVTVSSASTKGPSVFPLAPSSKSTSGGTAALGCLVKDYFPEPVTVSWNSGALTSGVHTFPAVLQSSGLYSLSSVVTVPSSSLGTQTYICNVNHKPSNTKVDKKVEPKSCDKTHTGGGGSGGGGSGGGGSEVQLKESGPGLVAPGGSLSITCTVSGFSLTDSSINWVRQPPGKGLEWLGMIWGDGRIDYADALKSRLSISKDSSKSQVFLEMTSLRTDDTATYYCARDGYFPYAMDFWGQGTSVTVSS[omitted - human IgG1 constant region]
chain 2: DIVLTQSPASLAVSLGQRATISCRASESVDSYGQSYMHWYQQKAGQPPKLLIYLASNLESGVPARFSGSGSRTDFTLTIDPVQAEDAATYYCQQNAEDSRTFGGGTKLEIKRTVAAPSVFIFPPSDEQLKSGTASVVCLLNNFYPREAKVQWKVDNALQSGNSQESVTEQDSKDSTYSLSSTLTLSKADYEKHKVYACEVTHQGLSSPVTKSFNRGEC

Columns and labels:
human IL13 [1] = target: T1, human IL13 (human, UniProt P35225); test: SPR, ExpiCHO expressed
human IL13 [2] = target: T1, human IL13; test: SPR, HEK293-FS expressed
human IL13 [3] = target: T1, human IL13; test: SPR, HEK293-FS expressed; remark: listed apart in the source
human IL13 [4] = target: T1, human IL13; test: SPR, ExpiCHO expressed; remark: listed apart in the source

T1 sequence (P35225 35-146): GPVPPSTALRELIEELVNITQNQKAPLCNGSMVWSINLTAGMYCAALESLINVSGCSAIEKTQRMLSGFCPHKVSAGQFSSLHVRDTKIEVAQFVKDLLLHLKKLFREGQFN

Row | Binder | Kd (human IL13 [2]) | further results
1 | B1 | 0.181 nM | Kd (human IL13 [1]): 0.00633 nM
2 | B2 | 0.114 nM | 
3 | B3 | 0.149 nM | 
4 | B4 | 0.087 nM | 
5 | B5 |  | binding result (human IL13 [3]): no binding
6 | B6 |  | binding result (human IL13 [4]): no binding
